# From PubChem BioAssay AID1634 (National Center for Advancing Translational Sciences (NCATS), 2009)
# In all, about 260,000 compounds went through this assay and about 150 (0.058%) were called active. The inconclusive results got no clear call from the source; some entries with a clear call stand among them for comparison. The call rests on the fitted dose curve; in most records, active means well fitted inhibition curve with a large enough effect; inconclusive means small, poorly fitted or top-dose-only effect; inactive means no such curve, though single readings can be large or run the other way. Potencies of inconclusive entries are left out as doubtful fits.
# Molecular target: Pyruvate kinase PKM (Homo sapiens) (UniProt P14618)
# Chain of UniProt P14618 (P14618 whole entry, looked up, canonical isoform): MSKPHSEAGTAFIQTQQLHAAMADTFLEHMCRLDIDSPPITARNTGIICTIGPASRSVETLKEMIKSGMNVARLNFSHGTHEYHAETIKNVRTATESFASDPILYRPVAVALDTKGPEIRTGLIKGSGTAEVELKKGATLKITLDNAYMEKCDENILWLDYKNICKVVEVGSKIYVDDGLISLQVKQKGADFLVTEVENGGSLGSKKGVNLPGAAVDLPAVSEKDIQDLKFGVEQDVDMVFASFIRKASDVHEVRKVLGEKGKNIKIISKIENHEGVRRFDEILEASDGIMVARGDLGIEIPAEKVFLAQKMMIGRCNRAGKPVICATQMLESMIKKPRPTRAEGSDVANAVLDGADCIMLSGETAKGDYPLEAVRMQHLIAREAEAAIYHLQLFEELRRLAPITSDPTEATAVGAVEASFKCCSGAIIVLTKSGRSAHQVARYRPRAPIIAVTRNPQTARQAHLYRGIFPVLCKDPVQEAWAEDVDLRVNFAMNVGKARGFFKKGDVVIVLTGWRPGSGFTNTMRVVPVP
# Assay: qHTS Assay for Inhibitors of Human Muscle isoform 2 Pyruvate Kinase; further: nearly all actives have a fitted effect of over 60% in size;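 on activity change, negative = inhibition: plate controls were uninhibited enzyme wells for no effect and no-enzyme wells for full effect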
# Conditions: purified PKM2, ATP generation, Kinase-Glo luminescence; series mostly up to 57.5 µM; activity change, negative = inhibition: at the top concentration
# Outline: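 Enzyme run at intermediate activity with final 0.1 mM ADP, 0.5 mM PEP (50 mM imidazole pH7.2, 50 mM KCl, 7 mM MgCl2), incubated 1 h at r.t. ATP formed read by Kinase-Glo luminescence, normalized to no-enzyme (full inhibition) and uninhibited wells.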
# Potency means the concentration at half of the fitted maximal effect; tags describe the fitted curve by direction and shape.
SMILES,Potency,"activity change, negative = inhibition"
O=C(/C=C/Nc1ccc(F)cc1F)c1ccco1,"inconclusive [falling, partial curve]",–
COc1ccc(-c2cc(-c3n[nH]c(=S)n3-c3ccccc3Cl)[nH]n2)cc1,"inconclusive [falling, single point]",–
COCCCNC(=S)NCCNc1nc2cc(C)cc(C)c2cc1C#N,"inconclusive [falling, single point]",–
CC(=O)N1c2ccccc2C2(O)N=C(C)SC12 (stereo not drawn),"inconclusive [falling, partial curve]",–
CCc1cccc(C)c1N=Cc1c(O)c2ccccc2oc1=O,–,inactive: 58.3%
Oc1ccccc1N1CCN(c2ncnc3sc(-c4ccccc4)cc23)CC1,–,inactive: 42.3%
Cc1c(NC(=O)c2ccc(N(C)S(C)(=O)=O)cc2)c(=O)n(-c2ccccc2)n1C,"inconclusive [falling, single point]",–
CN1CCC(NC(=S)Nc2cccc([N+](=O)[O-])c2)CC1,"inconclusive [falling, single point]",–
COc1ccc(S(=O)(=O)N/N=c2\oc3c(OC)cccc3cc2S(=O)(=O)c2ccc(C)cc2)cc1OC,"inconclusive [falling, single point]",–
Cn1cccc1/C=C1\CCc2ccccc2C1=O,"inconclusive [falling, partial curve]",–
Cn1c(=O)n(C)c2cc(NC(=O)c3ccccc3[N+](=O)[O-])c(Br)cc21,–,inactive: 84.2%
CN(C)Cc1c(O)ccc2[nH]cnc12,"inconclusive [falling, single point]",–
O=C(/C=C/Nc1ccc(F)cc1)c1ccco1,"inconclusive [falling, single point]",–
COc1ccc2sc(NC(=O)c3ccco3)nc2c1,"inconclusive [falling, partial curve]",–
Cc1ccnc(NC(=O)c2cccs2)c1,"inconclusive [falling, partial curve]",–
CCc1ccc(NC(=O)Cn2ccn(-c3cccc(Cl)c3)c(=O)c2=O)cc1,–,inactive: 32.8%
CC1CCCN(CCOc2ccc3ccccc3c2Br)C1 (stereo not drawn),–,inactive: -13.1%
O=C(NCC1CC1)c1ccc2c3n(nc2c1)-c1ccccc1CO3,"inconclusive [falling, partial curve]",–
COc1cc2c(cc1OC)CN(S(=O)(=O)c1ccc3c(c1)OCCO3)CC2,–,inactive: 70.4%
O=C(Nc1nc2ccccc2[nH]1)c1ccc(OC(F)F)cc1,"inconclusive [falling, single point]",–
Cc1[nH]n(-c2ccc(Cl)cc2)c(=O)c1/C=N/c1nnc(-c2ccccc2)s1,"inconclusive [falling, single point]",–
COc1ccc(NC(=O)c2c(NC(=O)CCC(=O)O)sc(-c3ccccc3)c2C)cc1,"inconclusive [falling, single point]",–
Cc1ccc(-c2cc(-c3ccc(F)cc3)c(C#N)c(N)n2)o1,–,inactive: 47.9%
O=C(COC(=O)C1=COCCO1)NCCCc1ccccc1,"inconclusive [falling, single point]",–
CC(=O)N1CC(=O)N=C1SCC(=O)Nc1nc(C)c(-c2ccccc2)s1,–,inactive: 97.1%

SMILES,Potency,"activity change, negative = inhibition"
Cc1ccc(C2OC3=C(C(=O)CC(C)(C)C3)C(N)=C2C#N)o1 (stereo not drawn),"inconclusive [falling, single point]",–
CCOC(=O)c1cnc2ccc(C(=O)OC)cc2c1Nc1cccc(C(=O)O)c1,"inconclusive [falling, single point]",–
COC(=O)C/C=N/N=C1/NC(=O)/C(=C/C(=O)O)S1,"inconclusive [falling, single point]",–
CC(=O)Nc1ccc(-c2cc(N)n(-c3ccccc3)n2)cc1,"inconclusive [falling, single point]",–
COC(=O)c1ccc(-c2nc3ccccc3[nH]2)cc1,"inconclusive [falling, partial curve]",–
COc1cc([N+](=O)[O-])ccc1NC(=O)CN1CCOCC1,"inconclusive [falling, single point]",–
Cc1ccc(NC(=O)OCCNC(=O)c2ccncc2)cc1,–,inactive: 59.5%
O=C(Nc1cc2ccccc2oc1=O)c1ccccc1,"inconclusive [falling, partial curve]",–
COC(=O)N/N=C1/C/C(=N\NC(=O)OC)c2ccccc21,"inconclusive [falling, full curve]",–
CN1N=C(/C=C/c2ccccc2)CCC1=O,"inconclusive [falling, partial curve]",–
O=C(Nc1ccccc1C(=O)N/N=C/c1ccccc1)c1ccco1,"inconclusive [falling, single point]",–
O=C(Cc1cccs1)Nc1nnc(C2CC2)s1,–,inactive: 54.7%
Cc1cccc(N2CCN(C(=O)c3ccc(NS(=O)(=O)c4c(C)noc4C)cc3)CC2)c1C,–,inactive: 35%
CCc1ccn2cc(-c3cc(-c4ccccc4)no3)nc2c1,"inconclusive [falling, single point]",–
O=[N+]([O-])c1cccc(S(=O)(=O)c2ccc(NCCO)c([N+](=O)[O-])c2)c1,–,inactive: 69.3%
COc1ccc(N2C(=O)CC(Sc3nnnn3-c3ccc(F)cc3)C2=O)cc1 (stereo not drawn),–,inactive: 77.6%
O=C(O)CCc1nn2cc(-c3ccccc3)nc2[nH]c1=O,"inconclusive [falling, partial curve]",–
CC(Sc1ccc([N+](=O)[O-])cn1)C(=O)Nc1nccs1 (stereo not drawn),–,inactive: 102%
CCOc1cc(/C=N/Nc2nn3cnnc3c3ccccc23)ccc1O,"inconclusive [falling, partial curve]",–
COc1ccc(S(=O)(=O)N2CCCCC2)cc1NC(=O)C1CCCO1 (stereo not drawn),"inconclusive [falling, single point]",–
CCCSc1ccc2nc(-c3ccccc3)cn2c1,"inconclusive [falling, partial curve]",–
Cc1cccc(C(=O)Oc2csc(=S)n2C(=O)c2cccc(C)c2)c1,"inconclusive [falling, single point]",–
O=C(NCc1ccco1)c1ccc2nc3sc4c(c3c(=O)n2c1)CCCC4,–,inactive: 32.7%
CCN1C(=O)/C(=C2/C=Cc3cc(C)ccc3N2CC)N(C)C1=S,"inconclusive [falling, single point]",–
COc1ccccc1OCc1nc2ccccc2s1,"inconclusive [falling, partial curve]",–

SMILES,Potency,"activity change, negative = inhibition"
CCOC(=O)CNC(=O)c1sc(NC(=O)c2ccccc2F)nc1C,"inconclusive [falling, partial curve]",–
CC(=O)c1sc2nsc(SCCN3CCOCC3)c2c1N,"inconclusive [falling, single point]",–
COc1ccc(CN(C(=O)/C=C/c2ccco2)C2CCS(=O)(=O)C2)cc1 (stereo not drawn),–,inactive: 42%
Cc1ccc(C(=O)OCC(=O)NCc2cccs2)cc1C,"inconclusive [falling, single point]",–
O=c1[nH]c(NC2CCCCC2)nnc1Cc1ccccc1,"inconclusive [falling, single point]",–
S=c1[nH]nc(-c2ccco2)n1/N=C/c1ccccc1Cl,"inconclusive [falling, partial curve]",–
O=c1sc2ccccc2n1Cc1ccccc1,"inconclusive [falling, single point]",–
CCOc1ccc(-c2cn3ccccc3n2)cc1,"inconclusive [falling, partial curve]",–
Cc1ccc(C(=O)/C=C/C(=O)c2ccc(C)cc2)cc1,–,inactive: 54.3%
CC(=O)NS(=O)(=O)c1ccc(NC(=O)c2ccccn2)cc1,"inconclusive [falling, single point]",–
CC(=O)OC1CSC2c3ccccc3C(=O)N2Cc2sccc21 (stereo not drawn),"inconclusive [falling, single point]",–
O=C(c1cccc(S(=O)(=O)NCc2ccccc2)c1)N1CCCC1,"inconclusive [falling, single point]",–
O=C(CCCN1C(=O)/C(=C/c2ccccc2Cl)SC1=S)N1CCOCC1,"inconclusive [falling, single point]",–
COc1ccc(CCNC(=O)COc2ccc(-c3ccc(C)cc3)cc2)cc1OC,"inconclusive [falling, single point]",–
COc1ccc(-c2cc3nc4n(c(=O)c3s2)CCC4)cc1,"inconclusive [falling, partial curve]",–
NC1=NC(=O)/C(=C\c2ccc(O)c([N+](=O)[O-])c2)S1,"inconclusive [falling, single point]",–
CCC(C(=O)OCC(=O)Nc1cccc(C(C)=O)c1)c1ccccc1 (stereo not drawn),"inconclusive [falling, single point]",–
COc1ccccc1Nc1nnc(SCC2CCCCO2)s1 (stereo not drawn),"inconclusive [falling, single point]",–
O=C(NN1CCCCC1)c1ccc(COc2ccc(Cl)cc2)cc1,"inconclusive [falling, single point]",–
O=C(COC(=O)CSc1ccc2ccccc2c1Br)NC1CC1,"inconclusive [falling, single point]",–
COc1ccc(/C=N/Nc2nccnc2Cl)c(OC)c1,"inconclusive [falling, single point]",–
COc1cccc(CNC(=O)C2CCN(S(=O)(=O)c3ccc4c(c3)OCCO4)CC2)c1,–,inactive: 64.1%
Cc1ccc(CN(CC2CCCO2)C(=O)CN2C(=O)C(C(C)C)Oc3ccccc32)o1 (stereo not drawn),–,inactive: 111%
